The labels stand for the following.
B1: tRNA (parent)
chain: CUCUCGGUAGCCAAGUUGGUUUAAGGCGCAAGACUUUAAUUUAUCACUACGAAAUCUUGAGAUCGGGCGUUCGACUCGCCCCCGGGAGAUUUUUUCCUCGAGCAA

For 133 variants, nonsense suppression results are on record in the RNAGym collection of RNA variant scans (doi:10.1101/gad.245936.114).

This sample is rich in variants without activity.

The variants in this data set derive from B1. Briefly: nonsense suppression (GFP-seq) (ratio to wild type); higher = more function; SUP4oc tRNA, yeast GFP reporter sort-seq. The procedure, abridged:
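Each variant's nonsense suppression (GFPSEQ) is a cell-share-weighted bin median GFP/RFP relative to the unmutated parent tRNA. Yeast with genome-integrated tRNA variants from a ~3% random-mutation library, a galactose-driven GFP ochre reporter and RFP were grown in raffinose/galactose medium with 80 mg/L adenine, then sorted into GFP/RFP bins for Illumina sequencing. Variants needed ≥100 reads and ≥30 cells.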
With G19C C29A, the nonsense suppression is at most 0.026. As for C29U U58G G88U, the figure is at most 0.026; as for G18U G25A A31U, at most 0.026; as for U4C U17G A30G A33G, at most 0.026. As for G28C G32A G61A G65C, the figure is at most 0.026. Next, C11G A23U G67U A74U: at most 0.026. For G15U U22A A24U, the nonsense suppression was at most 0.026. With C3G G7C, the nonsense suppression was at most 0.026.

In the case of G15U C68A U76G, the nonsense suppression is at most 0.026.

As for C34U C81U, the nonsense suppression was at most 0.026. As for A13C U21A, the figure is 1.19; as for A14U G65U G84U, at most 0.026.

For the variant A31U U35G U71G A89G, the nonsense suppression was at most 0.026.

U8C U55A C80A G84A: the nonsense suppression was at most 0.026. Next, A31C G85A: at most 0.026. Turning to G65C U76A G86A G88A, the nonsense suppression was at most 0.026. Next, C80A G88A: at most 0.026. As for G26U G69U C79U, the figure is at most 0.026; as for C3A A14G A33C, at most 0.026; as for U20G C79G G84A, at most 0.026. U16G A62U G88U: the nonsense suppression is at most 0.026.

As for A24U A87U, the nonsense suppression was at most 0.026.

For the variant C3U C12U C27G C34A, the nonsense suppression was at most 0.026. Next, C27G C34U A60U G69A: at most 0.026; G69A C81A: at most 0.026.

For the variant C12U G19A C56G U71A G78C, the nonsense suppression is at most 0.026. Take C11U G85C: the nonsense suppression was at most 0.026. As to A9U A74G C83G, the nonsense suppression was at most 0.026. On to C3G A33G A87U, for which the nonsense suppression is at most 0.026. For the variant A23G C72U, the nonsense suppression was at most 0.026. With C29G A62U, the nonsense suppression was at most 0.026. As for C11G A14G C29A A54G U57A G88C, the figure is at most 0.026. G59U G61U: the nonsense suppression was at most 0.026. Take U8G A87U: the nonsense suppression is at most 0.026. Next, A31C A54U U55C G66U G69A: at most 0.026. As for C5U U35G, the figure is at most 0.026; as for U57A G73U, at most 0.026.

Take C5G A31G G73A: the nonsense suppression was at most 0.026. As for G19C C56G, the figure is at most 0.026; as for G67A C75A C79A, 0.203; as for C72A A87U, at most 0.026. As for U2A G61U A74C G86C, the figure is at most 0.026; as for U2G G19U C56G, at most 0.026; as for U8A G15C G67A, at most 0.026. As for U22A G73U C80G, the figure is at most 0.026. Consider C29G G88A, for which the nonsense suppression is at most 0.026. As for U21G G67U U71A, the figure is at most 0.026; as for A23U U76C, at most 0.026.

Consider A13G A30C G61A G69C C72G C82G, for which the nonsense suppression is at most 0.026. C64U A87G: the nonsense suppression is at most 0.026. Turning to C56G U58A G86U, the nonsense suppression was at most 0.026.

As to C3G C12G U17C, the nonsense suppression was at most 0.026. For C1U A23G, the nonsense suppression is at most 0.026. As for A13U A33U U63G, the figure is at most 0.026.

As for C29U A60G, the nonsense suppression was 0.114. As for G19U A24G A87G, the figure is at most 0.026; as for C11U G18C U20G U76G, at most 0.026; as for A33U C80G C81A, at most 0.026. As for A23G A24U G32C G59A C64U, the figure is at most 0.026; as for C29U U35A C56G G84A, at most 0.026; as for G6U C11A C79U, at most 0.026. Next, U21G A31U A60U G61U: at most 0.026; G19C U20G C64U A89G: at most 0.026; A9G C11U G18A G32A A62C G66C A89C: at most 0.026. With C1U C12U C27G, the nonsense suppression was at most 0.026. Take G7C G18C U20G G28U U71A: the nonsense suppression is at most 0.026. As for U16A C34G G65C C75A, the figure is at most 0.026; as for C3U U21C A33U, at most 0.026. As for G19U A30U, the figure is at most 0.026. As for A24U U55A, the figure is at most 0.026.

Regarding U2G U17C, the nonsense suppression was at most 0.026. Next, U2A G18C A60U: at most 0.026.

On to C1A G18C A62U C64A, for which the nonsense suppression was at most 0.026.

On to C3G U16A, for which the nonsense suppression is at most 0.026.

For G15U C56A G88C, the nonsense suppression is at most 0.026.

Consider G18A G65C, for which the nonsense suppression was at most 0.026. Next, U58A C64U G65C A89G: at most 0.026; C34G G59U C75G: at most 0.026.

On to U16C G18C, for which the nonsense suppression was at most 0.026. Next, U17G A24C G67U: at most 0.026; G26U A60G G65A: at most 0.026; C1U C3G U4G U21G G66A C77U: at most 0.026. As to C34U U58G G61C A89U, the nonsense suppression is at most 0.026. As for G10C G18U C27G, the nonsense suppression was at most 0.026. As for C27A C68A, the figure is at most 0.026; as for U35A C72U, at most 0.026. As for A74C G78C, the figure is at most 0.026; as for G6A G15C A62C, at most 0.026; as for U22G G32A G61C, at most 0.026. With G66C A87G, the nonsense suppression is at most 0.026. As for U2A G84A A89G, the nonsense suppression is at most 0.026. As for G19C U71C, the nonsense suppression was at most 0.026.

In the case of C12A U16G, the nonsense suppression was at most 0.026. Consider C34G A54G, for which the nonsense suppression was at most 0.026.

As for U8C C11G U35A, the nonsense suppression was at most 0.026.

On to A14U A54C U55G, for which the nonsense suppression was at most 0.026. As for G59C C75A, the figure is at most 0.026. As for U2C U21A G28C A30G U55A G69C, the figure is at most 0.026; as for A31C G59C, at most 0.026.

G26U C64G: the nonsense suppression was at most 0.026. Next, U57G G59A G78C: at most 0.026; U55G G66C: at most 0.026; U2G U4G U16G U63G: at most 0.026. As for A9G A13G U70A C82U, the figure is at most 0.026. Consider G15U G26U A74G, for which the nonsense suppression was at most 0.026. As for G7A U63A, the nonsense suppression was at most 0.026. Consider U2A G25U A30C U70C, for which the nonsense suppression was at most 0.026. As to G15U A23U G26U G86A A87G, the nonsense suppression was at most 0.026. As for U71A C77A G84C, the figure is at most 0.026; as for A13U A24C A30U U55A C80U A87C, at most 0.026. Turning to A24C G67U, the nonsense suppression came out at 0.0289. Turning to C1U A13C C82A, the nonsense suppression is at most 0.026.

Turning to U58C A74U, the nonsense suppression is at most 0.026.

Consider G15U C29G A30C, for which the nonsense suppression is at most 0.026.

As to A30U G32A, the nonsense suppression is at most 0.026. As for G19U U63C C77U G78C, the figure is at most 0.026; as for C64A A74U, at most 0.026.

Consider A9G A24G, for which the nonsense suppression amounted to 0.0517. For the variant G6A G18C, the nonsense suppression was at most 0.026. Next, A9G U57G: at most 0.026; U55A A87U: at most 0.026. Turning to U55C C79G, the nonsense suppression was determined as 0.035. Next, A24G U55G: at most 0.026; A60G C79G: at most 0.026.

As for C1G C11G C64U, the nonsense suppression was at most 0.026. Next, U2G U17G A23G C27G C34G C75A: at most 0.026; C1G G73C: at most 0.026; U58A G59A U63A G69C U70G: at most 0.026. Turning to C12U A23G, the nonsense suppression is 0.0776. Next, G15C A23G G73A C77U: at most 0.026. For the variant C3A C29G C34A U71C, the nonsense suppression was at most 0.026. Next, A23C A33U U63A: at most 0.026; C64A A87C G88U: at most 0.026.
